According to PubChem BioAssay AID1508623 (National Center for Advancing Translational Sciences (NCATS), 2021):
The campaign covered roughly 48,000 compounds. About 450 (0.94%) were called active. Inconclusive results (about 19%) are left out. The call rests on the fitted dose curve; in most records, active means well fitted inhibition curve with a large enough effect; inconclusive means small, poorly fitted or top-dose-only effect; inactive means no such curve, though single readings can be large or run the other way. This is one part of the list.

Test: Primary qHTS for Identification of Small Molecule Inhibitors of Huntingtin Promoter Activity; further: nearly all actives have a fitted effect of over 50% in size
Conditions: HEK293 HTT promoter firefly luciferase reporter (activity 0% = vehicle and -100% = no light), 24 h; series mostly up to 57.5 µM; activity change, negative = inhibition: at the top concentration
Outline: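 HEK293 luciferase promoter-reporter cells (2,500/well) plated 24 h, then compounds added at up to 57.5 uM final for 24 h at 37 °C. Firefly luminescence by Dual-Glo, normalized to vehicle (0%) and zero RLU (-100%).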

Activity change, negative = inhibition, inactive:
CCc1nc2ccc(C(=O)NCCc3ccc(SC)cc3)cc2nc1CC 2.3%
COC(=O)c1c(SCC(=O)Nc2cccc(C(F)(F)F)c2)[nH]c2ccccc2c1=O -4.89%
COc1ccc(NC(=O)C(CC(C)C)NC(=O)C2CCCCC2)c(OC)c1 (configuration not stated) -7.28%
COc1ccc(-n2c(=O)c3ccccc3n(Cc3ccc(F)cc3Cl)c2=O)cc1OC -22.4%
COc1ccc(NC(=O)C2CCN(C(=O)c3sc4nc[nH]c(=O)c4c3C)CC2)c(OC)c1 -1.81%
CCc1ccccc1N1CC(c2nnc(NC(=O)c3ccco3)s2)CC1=O (configuration not stated) -12.7%
CCN(CC)S(=O)(=O)c1ccc2c(c1)N(CC(=O)N1CCN(c3cc(Cl)ccc3C)CC1)C(=O)CO2 -9.01%
CC(=O)OCc1cnc(C)c2oc(=O)c(C(=O)Nc3ccc(F)cc3C)cc12 -6.14%
Cc1cccc(N2CCN(c3nc4ccccc4c4nc(-c5ccccc5)nn34)CC2)c1C -3.25%
CC(=O)Nc1nonc1-c1nnc(SCC(=O)Nc2ccccc2Cl)n1C -9.85%
COc1ccc(C2CC(=O)c3cc(-c4nc(-c5ccc(Cl)cc5)cs4)c(=O)[nH]c3C2)cc1 (configuration not stated) -15.3%
CC1(C)O[C@@H]2C[C@H]3[C@@H]4C[C@H](F)C5=CC(=O)CC[C@]5(C)[C@H]4[C@@H](O)C[C@]3(C)[C@]2(C(=O)CO)O1 10.3%
CCC(Cc1ccccc1)NC(=O)c1csc2c1CCCCC2 (configuration not stated) -9.57%
COc1ccc2c(C)cc(SCC(=O)Nc3nsc(-c4ccc(C(C)(C)C)cc4)n3)nc2c1 56.3%
C[C@H]1C[C@H]2[C@@H]3CCC4=CC(=O)C=C[C@]4(C)[C@H]3C(=O)C[C@]2(C)[C@@]1(O)C(=O)CO 31.3%
COc1ccc2oc(-c3ccc(C)c(NC(=O)c4ccc(N5CCCCC5)c([N+](=O)[O-])c4)c3)nc2c1 2.99%
CC(C)(C)OC(=O)N1CCC(c2c(C(=O)NCCN3CCOCC3)cnn2-c2ccccc2)CC1 -20.1%
COc1ccccc1NC(=O)C1=C(C)Nc2ncnn2C1c1ccc[nH]1 (configuration not stated) -18%
COc1ccc(CNC(=O)CN2CCSc3ccccc32)c(OC)c1 -18.6%
CCN(CC)C(=O)Cn1c(SCC(=O)Nc2ccc(C)c(C)c2)nc2ccccc21 -22.6%
O=C(Cn1c(=O)oc2ccccc21)NCc1ccc(Cl)cc1 9.38%
Cc1ccc(-n2ncc3c(NCCc4ccccc4)ncnc32)cc1 17.1%
CCOc1ccc(S(=O)(=O)n2nc(C)c(S(=O)(=O)N3CCCCCC3)c2C)cc1 -11.2%
Cc1cc2oc(C(=O)N(Cc3ccccc3)C3CCS(=O)(=O)C3)cc(=O)c2cc1C (configuration not stated) -11.3%
CN1CCN(c2ncc3c(n2)CCN(Cc2ccccc2Cl)C3)CC1 -13.5%
Cc1ccccc1C(=O)Nc1ccccc1C(=O)OCc1cc(=O)n2nc(C3CC3)sc2n1 -12.6%
Cc1ccc(NC(=O)CN2C(=O)C(c3ccccc3)=NC2(C)C)cc1C 1.27%
COc1cccc(C(=O)Nc2ccc3c(c2)CCCN3C(=O)c2cccs2)c1OC -24.6%
Cc1ccc(S(=O)(=O)OCC(=O)Nc2ccc(C(=O)O)c(O)c2)cc1 2.62%
Cc1cc(-c2nc3ncccc3o2)ccc1NC(=O)COc1ccc(C(C)(C)C)cc1 9.84%
Cc1c2cnn(-c3ccccc3)c(=O)c2c(C)n1CC(=O)NCc1ccc(Cl)cc1 -11.5%
Cc1[nH]c(C)c(Cl)c(=O)c1Cl -4.34% [at 25.2 µM]
CC1=C(C(N)=O)C(c2ccc(C(C)C)cc2)n2nc(SCc3ccccc3F)nc2N1 (configuration not stated) -12.4%
CCn1cc2nc(SCc3cccc(C(F)(F)F)c3)n(CCc3ccccc3)c(=O)c2n1 -5.59%
CCOc1ccc(NC(=O)Cn2cnc3nc4c(cc3c2=O)CCCC4)cc1 -8.14%
Cc1c(CCNC(=O)c2ccc(C(F)(F)F)cc2)sc2nc(-c3ccc(F)cc3)nn12 4.17%
COc1ccc(CCNC(=O)Cn2c(C)c3cnn(-c4ccccc4)c(=O)c3c2C)cc1OC -11.3%
COc1ccc(-c2[nH]c(-c3ccc(F)cc3)nc2SCC(=O)Nc2ccc(OC)c(OC)c2)cc1 -30%
Fc1ccc(-n2ncc3c(Nc4ccc(Oc5ccc(Cl)cc5)cc4)ncnc32)cc1 -9.04%
Cc1ccc(N2CC(c3nnc(Cc4ccc(F)cc4Cl)o3)CC2=O)cc1 (configuration not stated) -1.72%
CCOC(=O)c1ccc(NC(=O)Cn2nnc(-c3ccc(C(F)(F)F)cc3)n2)cc1 -8.34%
COc1ccc2c(c1)c(N1CCCC1=O)c(C(=O)Nc1ccc(Cl)cc1C)n2C -29.7%
CCN1Cc2cccc(C(=O)Nc3ccc(F)cc3)c2C1=O -10%
CCOC(=O)c1ccc(OCC2c3cc(OC)c(OC)cc3CCN2C(=O)Cc2ccc(OC)c(OC)c2)cc1 (configuration not stated) -15.5%
C[C@@H]1C[C@H]2[C@@H]3CCC4=CC(=O)C=C[C@]4(C)[C@@]3(F)[C@@H](O)C[C@]2(C)[C@@]1(O)C(=O)COC(=O)c1ccncc1 -3.53%
COc1ccc(CCNC(=O)CCCn2c(=O)c3ccccc3n(CC(=O)Nc3c(C)cc(C)cc3C)c2=O)cc1OC -6.35%
CCOC(=O)c1c(-c2ccc(C)cc2)csc1NC(=O)c1ccc(C(C)(C)C)cc1 -9.13%
CCc1ccc(NC(=O)CCS(=O)(=O)c2ccc3c(c2)oc(=O)n3C)cc1 -6.65%
COC(=O)c1ccc(OC)c(Cn2c(=O)n(-c3cccc(Cl)c3)c(=O)c3c2c2cc(C)ccc2n3C)c1 -8.41%
Cc1ccc(-n2c(SCc3nc(-c4ccccc4C)no3)nnc2-c2ccncc2)cc1C -27.8%
Cc1ccc(-n2ncc(C(=O)N3CCc4ccccc4C3)c2C2CCN(C(=O)OC(C)(C)C)CC2)cc1C -4.14%
COc1ccccc1-c1noc(-c2ccc(NCCc3ccccc3)c([N+](=O)[O-])c2)n1 3.07%
CCn1cc(C(=O)NCCc2ccc(OC)c(OC)c2)c(=O)c2cc(S(=O)(=O)N3CCc4ccccc4C3)ccc21 4.61%
COc1cccc(CNC(=O)CSc2ncc(S(=O)(=O)c3ccc(C)c(Cl)c3)c(=O)[nH]2)c1 -15%
COc1ccc(-c2nc(CN3CCC(C(=O)NCCN(CC(C)C)CC(C)C)CC3)c(C)o2)cc1OC -19.2%
CC(C)(C)C(=O)OCc1cc(=O)n2nc(C3CCCCC3)sc2n1 10.2%
COC(=O)c1ccccc1NC(=O)CN1C(=O)COc2ccccc21 -0.696%
Cc1ncc(CO)c2c1Oc1nc(-c3ccccc3F)nc(SCC(=O)N3CCCCC3)c1C2 -6.93%
COc1ccc(NC(=O)CSc2nc3c(c(=O)[nH]2)CN(Cc2ccccc2)CC3)cc1Cl -22.8%
CCc1ccc(NC(=O)Cn2c(=O)n(Cc3ccccc3)c(=O)c3oc4ccccc4c32)cc1 -2.41%
COc1cccc2cc(-c3nc(Cl)c4c5c(sc4n3)CC(C)CC5)c(=O)oc12 (configuration not stated) -10.3%
Cc1ccc(S(=O)(=O)c2cn(C)c3cc(N4CCCC4)c(F)cc3c2=O)c(C)c1 -16.4%
CCOc1cc(C(=O)Nc2c(NC)c3ccccc3oc2=O)cc(OCC)c1OCC 19.8%
CCc1ccc(NC(=O)c2cnn(-c3c(C)cccc3C)c2C2CCNCC2)cc1 0.0757%
O=C1CN(C(=O)c2ccccc2)C(c2ccc(F)cc2)c2cc(Br)ccc2N1 (configuration not stated) -26.9%
Cc1ccc(C)c(NC(=O)CSc2nncn3c2cc2sccc23)c1 4.14%
CCOCCCNC(=O)c1c(NC(=O)c2cc(=O)c3cc(C)c(C)cc3o2)sc2c1CCC2 -14.8%
CCOc1ccc(N2CC(c3nc4ccccc4n3CCC3CCCCC3)CC2=O)cc1 (configuration not stated) -16.3%
COc1ccc(CN2C(=O)N(c3ccc(F)cc3)C(=O)C2CC(=O)Nc2ccccc2)cc1 (configuration not stated) -25.8%
CCCNC(=O)C1CCN(c2cc(C)nc3c(-c4ccc(OC)c(OC)c4)c(C)nn23)CC1 21%
Cc1ccc(CCNc2nc3ccccc3c3nc(-c4ccccc4)nn23)cc1 9.88%
O=C1N=C(O)CN1/N=C/c1ccc(-c2ccc([N+](=O)[O-])cc2)o1 0.905%
Cc1oc(-c2ccc(Cl)cc2)nc1CSc1nnc(C)n2c1cc1sccc12 -0.504%
O=C(NCCc1c[nH]c2ccccc12)Nc1ccccc1C(F)(F)F -14.5%
COC(=O)c1cc(NC(=O)Cn2ncc3c2-c2ccccc2OC3)cc(C(=O)OC)c1 -17.8%
COc1ccc(-c2noc(-c3ccc(NC4CCCCC4)c([N+](=O)[O-])c3)n2)cc1OC -8.09%
CCCn1c2ccccc2c2cnn(CC(=O)N(CCCOC(C)C)Cc3ccco3)c(=O)c21 -24.4%
COc1cc(C(=O)Nc2ccc(OCc3cc(=O)n4ccc(C)cc4n3)cc2)cc(OC)c1OC 4.47%
Cc1ccc(-n2c(=O)c3c(C)c(C)sc3n(CC(=O)c3ccc(Cl)cc3)c2=O)cc1C -21.3%
N#Cc1ccccc1CSc1nnc(-c2ccccc2)o1 33.4%
O=C(Cn1c(=O)n(Cc2ccc(F)cc2)c(=O)c2sc3ccccc3c21)NCc1ccccc1Cl -8.29%
Cc1ccn2c(Nc3ccc4c(c3)OCO4)c(-c3ccco3)nc2c1 54.1%
Cc1cccc(N2CCN(S(=O)(=O)c3c(C)[nH]c(=O)[nH]c3=O)CC2)c1C -16.6%
CCc1cccc(NC(=O)c2nc(-c3ccncc3)no2)c1 -11.7%
COc1ccc(C2=NN(CC(=O)NCc3ccccc3Cl)C(=O)CC2)cc1 5.84%
Cc1ccc(CCNC(=O)c2c(C)oc3ncnc(N4CCOCC4)c23)cc1 -10.1%
COc1cccc(CNC(=O)N2CCC(CN3CCC(C)CC3)CC2)c1 -2.35%
COc1cc2cc(CNc3ccc(C)cc3)c(=O)n(CC(=O)Nc3ccc(C(C)C)cc3)c2cc1OC -16.4%
COc1ccc(NC(=O)CSc2nc(-c3ccc(OC)cc3)[nH]c2-c2ccc(F)cc2)cc1 -29.8%
COc1ccccc1NC(=O)c1ccccc1NC(=O)c1ccccc1 -25.8%
CN(C)c1ccc(CNC(=O)CCC(=O)N2Cc3ccccc3Oc3ncccc32)cc1 -6.1%
Cc1ccc(CN(C(=O)COc2ccc(C(C)(C)C)cc2)C2CCS(=O)(=O)C2)o1 (configuration not stated) -23.9%
